The values that follow come from PubChem BioAssay AID504444 (National Center for Advancing Translational Sciences (NCATS), 2011).

Among all 360,000 compounds or so, about 7,500 (2.1%) were called active. Another 20% or so got no clear call; they are omitted. Calls come from the whole dose curve; as a rule, active = well fitted inhibition curve with a large enough effect; inconclusive = small, poorly fitted or top-dose-only effect, or effect the other way; inactive = flat fitted curve, though single readings scatter. The list shows a part of the results, in another mix than the full data.
% is set by controls: 0 for no effect and ±100 for the full control effect; potency is the fitted concentration of half-maximal effect.

The assay is described as follows: Nrf2 qHTS screen for inhibitors. Note: nearly all actives have a fitted effect of over 60% in size. The settings on record: A549 ARE-Fluc reporter, luciferase luminescence, 18-24 h; series mostly up to 46 µM; activity change, negative = inhibition: at the top concentration. The method in brief:
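Quantitative HTS in A549 cells stably bearing an antioxidant response element-firefly luciferase construct. Inhibition of Nrf2-driven transcription was scored by luminescence after 18-24 h of compound exposure at 37 °C.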
For `CC(=O)Nc1ccc(/C=C/c2noc(-c3ccccc3O)n2)cc1`, the “activity change, negative = inhibition” value is inactive: 24%. Turning to `CC(=O)c1ccc(N2CCN(S(=O)(=O)c3cc4[nH]c(=O)c(=O)[nH]c4cc3C)CC2)cc1`, the “activity change, negative = inhibition” value was inactive: 0.877%.

For `CCOc1ccc(C(=O)C2CCN(CC(=O)Nc3ccccc3N3CCOCC3)CC2)cc1`, the Potency was active: 11.6 µM.

As to `O=C1Cc2cc(S(=O)(=O)N3CCN(c4cccc(Cl)c4)CC3)ccc2N1`, the “activity change, negative = inhibition” value was inactive: -11.9%. Still for that read-out and setting: the same measure for `COc1cccc(NC(=O)CCN2C(=O)c3ccccc3Sc3ncccc32)c1`: inactive: -25.6%. The same measure, in the same setting: under `CCOC(=O)CC(=O)Nc1ncnc2c1C(c1ccccc1)c1c(ccc3ccccc13)O2` (stereo not drawn) stands inactive: 8.85%. `COc1ccc(-c2c(C#N)c(SCC(=O)c3cc4ccccc4oc3=O)nc(C)c2C(=O)Nc2ccccc2)cc1`: the Potency was active: 6.51 µM. Take `COc1ccc(CC(=O)Nc2c(C(=O)N3CCN(c4ccccc4)CC3)oc3ccccc23)cc1OC`: the “activity change, negative = inhibition” value is inactive: -0.793%. Same read-out and setting: the same measure for `COc1ccc(CNC(=O)CCNS(=O)(=O)c2ccc3c(c2)oc(=O)n3C)cc1`: inactive: 10.3%. Still for that read-out and setting: the same measure for `CC(C)C[C@H](NC(=O)c1[nH]cnc1C(=O)N[C@H](C)c1ccccc1)C(=O)OCc1ccccc1`: inactive: 2.72%. Consider `Cc1cccc(NC(=O)CN2CCN(C(=O)CN3C(=O)NC4(CC(C)CC(C)(C)C4)C3=O)CC2)c1C` (stereo not drawn), for which the Potency is active: 16.4 µM. Still for that read-out and setting: under `Cc1nnc(N/N=C/c2cc([N+](=O)[O-])c(N3CCC(C)CC3)cc2N2CCC(C)CC2)n1N` stands active: 18.4 µM. On to `COCCNC(=O)CCC(=O)NNc1nc2ccccc2c2nc(C)nn12`, for which the “activity change, negative = inhibition” value is inactive: 4.74%. On to `CCCc1cc(=O)[nH]c(SCC(=O)N2CCN(c3ccccc3)CC2)n1`, for which the “activity change, negative = inhibition” value was inactive: 4.13%.

Regarding `COc1cccc(CNC(=O)Cn2ncc3c(=O)oc4ccccc4c32)c1`, the “activity change, negative = inhibition” value was inactive: -4.56%.

`CC[C@H]1CCCCc2ccccc2[C@@H](C(=O)C[C@@H](O)CC(C)=O)OC1=O`: the “activity change, negative = inhibition” value is inactive: 28.7%. On to `CC[N+](CC)(CC#Cc1ccccc1)CC#Cc1ccccc1`, for which the Potency is active: 14.6 µM. Take `COCCCNC(=O)c1cn(CC(C)C)c(=O)c2c1c1ccccc1n2C`: the “activity change, negative = inhibition” value is inactive: 7.92%. Same read-out and setting: under `COc1ccc(CCNC(=O)CN(c2ccccc2OC)S(=O)(=O)c2ccc(C)cc2)cc1` stands inactive: -21.9%. On the same count and under the same terms, under `Cc1ccc(NC(=O)CSc2nc(C)c(Cc3ccccc3)c(=O)[nH]2)cc1` stands inactive: -8.28%.

As for `O=C(Nc1sc2c(c1C(=O)NCC1CCCO1)CCCC2)c1cccs1` (stereo not drawn), the Potency is active: 20.6 µM. Regarding `O=C(COC(=O)CNC(=O)c1ccccc1Cl)Nc1cc(C(F)(F)F)ccc1Cl`, the “activity change, negative = inhibition” value was inactive: 15.5%. In the case of `CC1(O)CC(c2ccc(Cl)cc2)=NN1C(=O)c1ccc([N+](=O)[O-])cc1` (stereo not drawn), the Potency was active: 18.4 µM. As to `Cc1cc2[nH]c(=O)c(=O)[nH]c2cc1S(=O)(=O)N1CCN(c2cccc(Cl)c2)CC1`, the “activity change, negative = inhibition” value was inactive: -15.7%. `Cn1nc(CC(=O)Nc2ccc(N3CCN(C(=O)OC(C)(C)C)CC3)cc2)c2ccccc2c1=O`: the Potency was active: 10.3 µM. For the molecule `CCOc1ccc(N/C(C)=C/C(=O)c2ccc3c(c2)OCCO3)cc1`, the “activity change, negative = inhibition” value was inactive: 5.63%. For the molecule `COc1ccccc1N1CCN(C(=O)C2CCCN(S(=O)(=O)c3ccc4c(c3)CCCN4C(C)=O)C2)CC1` (stereo not drawn), the Potency is active: 9.2 µM. For the molecule `COc1ccc(C2/C=C\CN(C(=O)c3ccc(C)cc3)CC(=O)N2Cc2ccc(F)cc2)cc1` (stereo not drawn), the “activity change, negative = inhibition” value was inactive: 9.96%.

Turning to `Cc1ccccc1N(C)S(=O)(=O)c1nnc(NC(=O)c2ccco2)s1`, the “activity change, negative = inhibition” value was inactive: -5.73%. Consider `Cc1ccc(Oc2nnc(-c3cccs3)c3ccccc23)cc1C`, for which the Potency is active: 18.4 µM.

With `NS(=O)(=O)c1ccc(CCNC(=O)C2CCN(c3ncnc4c3nc3n4CCCCC3)CC2)cc1`, the “activity change, negative = inhibition” value was inactive: 13.9%.

On to `CCC(CC)C(=O)Nc1nnc(S(=O)(=O)N2CCCCCC2)s1`, for which the “activity change, negative = inhibition” value is inactive: 8.33%.

As to `CCCN(CCC)C(=O)c1cc2c(=O)n3cccc(C)c3nc2s1`, the “activity change, negative = inhibition” value is inactive: 10.7%. On the same count and under the same terms, under `C[C@@H]1C[C@H](Nc2ccccc2)c2ccccc2N1C(=O)c1cccnc1` stands inactive: 0.249%. Regarding `O=C(NNC(=O)c1cccc(S(=O)(=O)N2CCc3ccccc32)c1)c1ccccc1`, the Potency was active: 8.2 µM.

Consider `CCCOc1ccccc1C1NC(=O)NC(C)=C1C(=O)OCc1ccccc1` (stereo not drawn), for which the Potency is active: 10.3 µM. With `CCOC(=O)[C@H](CCc1ccccc1)N[C@@H](C)C(=O)N1CCCC1C(=O)O` (stereo partly drawn), the “activity change, negative = inhibition” value is inactive: 0.63%. The same measure, in the same setting: the same measure for `Cc1ccc(-n2nc3c(=O)n(CCCC(=O)NCCc4ccccc4)nc(C)c3c2C)cc1`: inactive: 4.51%. In the case of `Cc1cccc(CCNC(=O)CCS(=O)(=O)c2cc3c(cc2Cl)NC(=O)CO3)c1`, the “activity change, negative = inhibition” value was inactive: -20.4%. Same read-out and setting: under `Cc1cccc(-n2cnc3cc(C(=O)N4CCCCC4)ccc32)c1` stands inactive: 23.5%; under `COC(=O)/C=C1/SC(=Nc2ccc(Cl)c(Cl)c2)NC1=O`, inactive: -11.1%. Consider `Cc1ccc(-c2cc([C@H]3[C@H]4C=CC[C@@H](C)[C@@H]4C(=O)N3Cc3ccccc3)ccc2F)cc1`, for which the “activity change, negative = inhibition” value was inactive: -10.1%.

In the case of `NC1=NC[C@@H](Cc2ccc(O)cc2)N1CCCCC1CCCCC1`, the “activity change, negative = inhibition” value is inactive: 25.7%. The same measure, in the same setting: under `O=C(NCc1nc2ccccc2[nH]1)C1=C[C@@H](c2csc3ccccc23)C[C@@H](OCc2ccc(CO)cc2)O1` stands inactive: 4.52%. Turning to `O=C(Nc1ccccc1N1CCCC1)c1ccc([N+](=O)[O-])o1`, the Potency is active: 16.4 µM. Turning to `COc1ccc(CCNC(=O)c2ccc3c(c2)N(Cc2ccc(C)cc2)CCS3)cc1OC`, the “activity change, negative = inhibition” value was inactive: 2.54%. Still for that read-out and setting: the same measure for `Cc1cn([C@H]2C=C[C@@H](CO)O2)c(=O)[nH]c1=O`: inactive: -0.974%. For `CCC(=O)Nc1cccc(C(=O)/C=C/c2ccc(F)cc2)c1`, the Potency was active: 23.1 µM. Consider `C=CCC[C@@H](Cc1ccc(F)cc1)C(=O)OC[C@@H]1CCCN1C(=O)[C@H](CC=C)CC(=O)N[C@H](CO)Cc1ccccc1`, for which the “activity change, negative = inhibition” value is inactive: -26.1%. On the same count and under the same terms, under `C/C(=N\Nc1ccc(C(=O)O)cc1)c1ccc2c(c1)Nc1ccccc1S2` stands inactive: 17.4%.

`O=C(Nc1nc(-c2ccccc2)cs1)c1ccccc1NS(=O)(=O)c1ccc(F)cc1`: the Potency is active: 6.51 µM. On to `CN1C(C(=O)Nc2ccc(F)cc2F)=CC(c2ccco2)=NS1(=O)=O`, for which the “activity change, negative = inhibition” value was inactive: -11.3%. Same read-out and setting: the same measure for `Cc1cccn2c(=O)c(C(=O)NCCCN3CCCCC3C)c(O)nc12` (stereo not drawn): inactive: 4.13%.

For the molecule `O=C(Cn1c(=O)c2cccn2c2ccccc21)Nc1cc(F)ccc1F`, the “activity change, negative = inhibition” value is inactive: -0.0475%. Regarding `O=C(c1ccc2c(c1)N(Cc1ccc(F)cc1)C(=O)c1ccccc1S2=O)N1CCC(Cc2ccccc2)CC1` (stereo not drawn), the Potency is active: 23.1 µM. In the case of `O=C(Nc1nnc(S(=O)(=O)Nc2ccccc2)s1)C1CCCCC1`, the “activity change, negative = inhibition” value is inactive: -23.6%. Same read-out and setting: the same measure for `O=C(O)C1=C[C@@H](c2ccc(C(F)(F)F)cc2)C[C@@H](OCc2ccc(CO)cc2)O1`: inactive: 7.98%; for `Cc1nc2nc(CSc3nnc(C)s3)cc(=O)n2[nH]1`: inactive: -6.32%.
